Source: PubChem BioAssay AID2100 (National Center for Advancing Translational Sciences (NCATS), 2009)
The whole screen tested about 300,000 compounds, of which about 1,200 (0.4%) were called active. The shares of active, inactive and inconclusive entries below differ from those in the screen. Calls follow the shape of the dose curve; as a rule, active = well fitted inhibition curve with a large enough effect; inconclusive = small, poorly fitted or top-dose-only effect, or another doubt; inactive = no such curve, though single readings can be large or run the other way. Potencies beside an inconclusive call are fits to weak or partial responses and may not hold up.

The compounds below were run against Lysosomal alpha-glucosidase (Homo sapiens) (UniProt P10253) (assay: qHTS Assay for Inhibitors and Activators of Human alpha-Glucosidase Cleavage of Glycogen). Settings: recombinant GAA, glycogen substrate, Amplex Red glucose oxidase fluorescence; series mostly up to 76.4 µM.
Source text: NIH Chemical Genomics Center [NCGC] NIH Molecular Libraries Probe Production Centers Network [MLPCN] MLPCN Grant: R03 MH084841-01 Assay Submitter (PI): Wei Zheng NCGC Assay Overview: Alpha-glucosidase is responsible for the hydrolysis of terminal, non-reducing 1,4-linked alpha-D-glucose residues, which releases alpha-D-glucose. It is a lysosomal hydrolase that is required for the degradation of a small percentage (1-3%) of cellular glycogen in humans. Deficiency of this enzyme results in glycogen-storage disease type II (GSDII), also referred to as Pompe disease, an autosomal recessive disorder. Structurally normal glycogen is accumulated in the lysosomes and cytoplasm in affected patients, primarily in muscle tissues. Excessive glycogen storage within lysosomes may interrupt normal functioning of other organelles and leads to cellular injury. In turn, this leads to enlargement and dysfunction of the entire organ involved (eg: cardiomyopathy and muscle weakness). It has been reported that the improper folding and trafficking of alpha-glucosidase resulting from genetic mutations may account for a significant number of Pompe patients. […] We optimized this alpha-glucosidase assay in 1536-well plate format for identification of novel small molecule inhibitors or activators with structures other than the sugar analogs in order to develop new pharmacological chaperones. Previous assays of alpha-Glucosidase have utilized a non-natural fluorescent substrate to probe enzyme activity. The present assay measures enzyme activity on glycogen using a coupled-assay system to glucose oxidase.
NCGC Assay Protocol Summary: This is an enzyme assay using glycogen from bovine liver (Sigma catalog #: G0885) as the substrate and recombinant human alpha-glucosidase as the enzyme preparation. Upon hydrolysis of the substrate, the glucose product can be detected using the Amplex Red Glucose Oxidase Assay Kit (Invitrogen catalog #: A22189). The product of this reaction can be read with a fluorescence plate reader with an excitation at 573 nm and an emission at 610 nm. Data were normalized to the controls for basal activity (without enzyme) and 100% activity (with enzyme). The AC50 values were determined from concentration-response data modeled with the standard Hill equation. Assay buffer for enzyme reaction: 50 mM citric acid (titrated with potassium phosphate to pH 5.0), 0.01% Tween-20 (pH 5.0 is an optimal condition for this enzyme assay) Assay buffer for Amplex Red reaction: Tris-HCl, pH 7.5 1536-well assay protocol for the alpha-glucosidase assay: (1) Add 2 ul/well alpha-glucosidase enzyme solution (4 nM final) (2) Add 23 nL compounds in DMSO solution. The final titration was 0.7 nM to 77 uM. (3) Add 1 ul of glycogen substrate solution (30 ug) (4) Incubate at 37 C for 40 min (5) Add 2 ul tris-HCl buffer with Amplex Red reagents (6) Incubate 45 min at room temperature. (7) Detect the assay plate in a ViewLux plate reader (PerkinElmer) with Ex=573 nm and Em=610nm. Keywords: Alpha-glucosidase, Pompe Disease, pharmacological chaperone, chaperone therapy, high throughput screening, alpha-glucosidase inhibitor, MLSMR, MLSCN, NIH Roadmap, qHTS and NCGC
Potency is read from the fitted curve at half-maximal effect.

Structure (SMILES)	Potency
CC(=O)C1=C(C)N(Cc2ccccc2)C(=O)N[C@@H]1c1cccc(C(F)(F)F)c1	inactive
Cc1cccc(-n2nnnc2SCn2nnc3ccccc3c2=O)c1	inactive
Oc1ccc(-c2csc(-c3cccnc3)n2)c(O)c1	inactive
COc1cccc(CNC(=O)Cn2c(=O)oc3cc(S(=O)(=O)N4CCCC4)ccc32)c1	inactive
O=C(Nc1cccc([N+](=O)[O-])c1)C(=O)N1CCCCC1	inconclusive: 12.6 µM [inhibitor, partial curve]
CCSc1c(-c2ccccc2)nc2c(C)cccc2c1C(=O)O	inconclusive: 9.92 µM [inhibitor, partial curve]
C=CCn1c(CCc2cc(C(C)(C)C)c(O)c(C(C)(C)C)c2)n[nH]c1=S	inconclusive: 12.5 µM [inhibitor, partial curve]
COc1ccc(NC(=O)c2c(NC(=O)CNCc3ccco3)sc3c2CCC3)cc1	inconclusive: 4.47 µM [inhibitor, full curve, poor fit]
O=C(CSc1nc(-c2ccc(F)cc2)cc(C(F)(F)F)n1)NCc1ccccc1	inactive
Cc1ccc(N=Cc2cccc(O)c2O)c(C)c1	inconclusive: 2.22 µM [inhibitor, full curve, poor fit]
CC1CCCC/C1=N\Nc1ccc(S(N)(=O)=O)cc1[N+](=O)[O-] (configuration not stated)	inconclusive: 3.98 µM [inhibitor, full curve]
CCN(CC)c1ccc(N=Cc2cc(Br)ccc2O)cc1	inconclusive: 31.6 µM [inhibitor, single point]
O=C(c1nc(-c2ccc(Cl)cc2)n2c1CCCCC2)N1CCN(c2ccccc2F)CC1	inactive
CCOC(=O)c1c(C)c(/C=N/Nc2ccccc2)n(C)c1C	inconclusive: 31.6 µM [inhibitor, single point]
COc1cc(/C=N/N2C(=O)CSC2=S)ccc1O	active: 31.6 µM
COc1ccc(NC(=O)NS(=O)(=O)c2ccc(C)cc2)c(OC)c1	active: 25.1 µM
Cc1ccc(Nc2c(-c3ccc(C)o3)nc3ncccn23)cc1	inconclusive: 28.2 µM [inhibitor, partial curve]
COc1ccc(NC(=O)CSc2nc3ncccc3[nH]2)c(OC)c1	inactive
COc1cc(C(=O)OCCC(C)C)cc(OC)c1O	active: 11.2 µM
O=C(N/N=C\c1cn(-c2ccccc2)nc1-c1ccccc1)c1ccc2c(c1)OCO2	inactive
O=C(N/N=C/C=C/c1ccccc1)c1ccccn1	inconclusive: 39.8 µM [inhibitor, partial curve]
Cn1cc(/C=N/NC(N)=S)c2ccccc21	inconclusive: 50.1 µM [inhibitor, partial curve]
O=C(NC(=S)NNS(=O)(=O)c1ccccc1)c1cccnc1	inconclusive: 17.6 µM [inhibitor, single point]
CCOCCOC(=O)C1=C(C)N(C)C(=O)NC1c1cc(Cl)c(O)c(OCC)c1 (configuration not stated)	inconclusive: 50.1 µM [inhibitor, single point]

Structure (SMILES)	Potency
CC(=O)c1cccc(NC(=O)CCNC(=O)c2cccc(C)c2)c1	inconclusive: 6.31 µM [inhibitor, single point]
N#CC1=C(N)N(c2ccccc2)C(c2ccco2)C1(C#N)C#N (configuration not stated)	inconclusive: 15.7 µM [inhibitor, partial curve]
COc1ccc(-c2cn3c(n2)sc2cc(C(=O)NC4CCCc5ccccc54)ccc23)cc1 (configuration not stated)	inactive
Cc1cc2oc(=O)c(CC(=O)NCCc3ccccc3)c(C)c2c2occ(C(C)(C)C)c12	inactive
COc1ccc(NC(=S)NNC(=O)CCn2cc([N+](=O)[O-])cn2)cc1	inconclusive: 3.55 µM [inhibitor, full curve]
Clc1ccc2c(c1)C(N1CCNCC1)Cc1ccccc1S2 (configuration not stated)	inactive
CCOC(=O)c1cc(CC)sc1/N=C/c1c(O)ccc2ccccc12	inconclusive: 44.7 µM [inhibitor, single point]
Cc1ccc(N/N=C2\CS(=O)(=O)N(C)c3ccsc32)cc1	inconclusive: 9.92 µM [inhibitor, partial curve]
Nc1c(-c2ccccc2)sc2ccc3ccccc3[n+]12	inconclusive: 39.8 µM [inhibitor, single point]
O=C(C[n+]1cc(Br)cc(Br)c1)c1cccc([N+](=O)[O-])c1	inconclusive: 50.1 µM [inhibitor, single point]
COc1cccc(C2NC(c3cccc(OC)c3O)C(C)C(=O)C2C)c1O (configuration not stated)	inconclusive: 24.9 µM [inhibitor, partial curve]
Cc1noc(C)c1/C=N/Nc1ccccn1	inconclusive: 22.4 µM [inhibitor, single point]
COc1cccc(-c2nc(NCc3ccccc3)c3ccccc3n2)c1O	inactive
COc1ccccc1N/C=C/c1onc(C)c1[N+](=O)[O-]	inactive
O=[N+]([O-])c1ccc(O)c(N=Cc2sc3ccccc3c2O)c1	inactive
Cc1ccc(-c2nc3ccc(Cl)cn3c2Nc2ccc3c(c2)OCCO3)o1	inconclusive: 12.6 µM [inhibitor, partial curve]
CCOCCCNC(=O)/C(C#N)=C/c1ccc([N+](=O)[O-])o1	inconclusive: 11.2 µM [inhibitor, single point]
CCC1(c2ccccc2)NC(=S)N(c2ccc(C)cc2)N1 (configuration not stated)	inconclusive: 11.2 µM [inhibitor, partial curve, poor fit]
Cc1onc(-c2ccccc2)c1CNS(=O)(=O)c1cccc(Cl)c1	inactive
Cc1cc(C)c2c(-n3cccc3)c(C(=O)NCCCN3CCCCC3C)sc2n1 (configuration not stated)	inactive
CC1CCCN(c2ccc(N)cc2C(N)=O)C1 (configuration not stated)	inconclusive: 10 µM [inhibitor, partial curve]
O=C(c1ccccc1)N1CCN(S(=O)(=O)c2cccc(NS(=O)(=O)c3ccccc3)c2)CC1	inconclusive: 50.1 µM [inhibitor, single point]
CCSC(=S)Nc1c(C)n(C)n(-c2ccccc2)c1=O	inconclusive: 39.8 µM [inhibitor, partial curve]
